# Data as given in article PMC7819943, “Rice protein-binding microarrays: a tool to detect cis-acting elements near promoter regions in rice”.
# The list shows a part of the results.
# Biological target: T1, OsWOX13 (Oryza sativa, UniProt Q5QMM3 1-267)
# T1 sequence: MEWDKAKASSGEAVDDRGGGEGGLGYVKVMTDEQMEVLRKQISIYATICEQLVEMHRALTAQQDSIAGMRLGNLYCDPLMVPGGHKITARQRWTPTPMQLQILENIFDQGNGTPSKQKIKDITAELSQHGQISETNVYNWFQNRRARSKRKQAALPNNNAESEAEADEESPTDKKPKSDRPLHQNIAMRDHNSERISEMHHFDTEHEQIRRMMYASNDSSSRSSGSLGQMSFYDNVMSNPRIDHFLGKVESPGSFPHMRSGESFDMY
# Assay: protein-binding microarray (RPBM); PBS, 2% BSA, 51.3 ng/ul salmon testes DNA, 50 uM zinc acetate, 200 nM TF, 25 C, 1 h; high values mean tight binding
# Conditions: protein: recombinant; tags: N-terminal polyhistidine and DsRed monomer fusion (pET32a); label: CyDye5-dUTP incorporated in the synthesized complementary strand; 3' TTTTT single-stranded linker to array surface; dsDNA, one strand shown
# How it was run: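 In PBS with 2% BSA, salmon testes DNA and 50 µM zinc acetate, 200 nM protein was incubated on a custom Agilent array at 25 °C for 1 h and then washed off. The array had been made double-stranded by primer extension with Cy5-dUTP and blocked with 2% BSA. The proteins were transcription factors fused N-terminally to polyhistidine and DsRed, expressed in E. coli BL21-CodonPlus and purified on Ni–NTA. The binding signal is per-feature fluorescence intensity (arbitrary units) from an Axon 4000B scanner.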
row,Sequence,binding signal
1,CATGACATATATCATTACTACCATTTGTTTATATAGAATGCGGAGTCACCTAGTGCAG,9170 fluorescence intensity (a.u.)
2,TTCAATTGATTATGAACTGCTTGTACTCTAATCAATGGTACGGAGTCACCTAGTGCAG,55800 fluorescence intensity (a.u.)
3,ACCAGATTACTTTCATTAAATCTACGACCGAATAATATATCGGAGTCACCTAGTGCAG,3460 fluorescence intensity (a.u.)
4,TTTAGATTTATTGTACTACGAAGTGTCTCGTCTGTTATAGCGGAGTCACCTAGTGCAG,6560 fluorescence intensity (a.u.)
5,CATTTGATCTAGCCGATTGGTAGTTAATAAAAGTCAAAATCGGAGTCACCTAGTGCAG,4270 fluorescence intensity (a.u.)
6,CTGTAATTAAGCTTTGATGCTCTGACTTGACTGTTTCCGTCGGAGTCACCTAGTGCAG,18800 fluorescence intensity (a.u.)
7,ATTAATTGCCACATTTCAATCGAAACAAGCTACTATTCTCCGGAGTCACCTAGTGCAG,19800 fluorescence intensity (a.u.)
8,CCATATTAAACTCATCATTAATTCCCTTTAAACTCTCCATCGGAGTCACCTAGTGCAG,3620 fluorescence intensity (a.u.)
9,CCATTAAATGCACAATGACACAATTTGAGGATCAGTTTAGCGGAGTCACCTAGTGCAG,3340 fluorescence intensity (a.u.)
10,ACATTAACTGCACTTAATGAGGATGAACTATATAAGTATTCGGAGTCACCTAGTGCAG,11100 fluorescence intensity (a.u.)
11,ACTAGATATGGGCAAACTAATTAGCTTATAATGAAATGATCGGAGTCACCTAGTGCAG,4040 fluorescence intensity (a.u.)
12,ACGTAATGTGTGTATGACAGGTAAGATTAGGTATTAATAGCGGAGTCACCTAGTGCAG,13500 fluorescence intensity (a.u.)
13,GTGTTTATAATTATCAAAATGAAATAAAAGGATTGCTGCACGGAGTCACCTAGTGCAG,11100 fluorescence intensity (a.u.)
14,AAAATTGTTTCAATCCAAACAAGCTCATCTTGTTCCGTGACGGAGTCACCTAGTGCAG,7880 fluorescence intensity (a.u.)
15,TGTTTAATATATTTTGTCTAATTGGACCGCTATATCAGTACGGAGTCACCTAGTGCAG,10800 fluorescence intensity (a.u.)
16,TTTTGATTTCGAAATTAATTAATTAACAAAAGGATTGACCCGGAGTCACCTAGTGCAG,14000 fluorescence intensity (a.u.)
17,AACACTTAATTTATCTTTTCATTTAAGTCTTGAATGTATACGGAGTCACCTAGTGCAG,16400 fluorescence intensity (a.u.)
18,CATAATTATTGAAGGCACAAAACTGCGCACGTTGCGTACCCGGAGTCACCTAGTGCAG,27300 fluorescence intensity (a.u.)
19,TGTTTGATTTGCTCTTGATTTGGAAGAAGAGATGAGAGGACGGAGTCACCTAGTGCAG,40100 fluorescence intensity (a.u.)
20,GATAAATTATCACGAAACTGTAACTTCTACGCATATCACGCGGAGTCACCTAGTGCAG,23700 fluorescence intensity (a.u.)
21,GTTTAATTCAATACTATAATTCCATCTAATTTGGGAAGCGCGGAGTCACCTAGTGCAG,7000 fluorescence intensity (a.u.)

row,Sequence,binding signal
1,GATTCGTTGAATTGATTGCTCTTAGTGCGATTGTGCGAATCGGAGTCACCTAGTGCAG,25900 fluorescence intensity (a.u.)
2,TGTAAGGATAATTGTTAGATTGTTAATAGTGTAAATGTCGCGGAGTCACCTAGTGCAG,11200 fluorescence intensity (a.u.)
3,TCAAAATAATAAATTTTGATGATAAAATAAGTCACAACAACGGAGTCACCTAGTGCAG,5540 fluorescence intensity (a.u.)
4,AAACAGATGGTACTAAATTAAATTATACTGGCGCAATAGACGGAGTCACCTAGTGCAG,5320 fluorescence intensity (a.u.)
5,CACTTAACTTAATTAGTTAATTATTGCTCTATTTTCTCTGCGGAGTCACCTAGTGCAG,60500 fluorescence intensity (a.u.)
6,TGCTTAACAGTCTTATATGATGTATCACGAAAGTTATTTCCGGAGTCACCTAGTGCAG,3250 fluorescence intensity (a.u.)
7,ATATAAATCAAATTTACAACTTTGCTGTAGCTATAATTTGCGGAGTCACCTAGTGCAG,7160 fluorescence intensity (a.u.)
8,TTTCAACATTAATTAGGAGTATTTCGAAAACTGAAATCATCGGAGTCACCTAGTGCAG,4970 fluorescence intensity (a.u.)
9,AATGGATGAGATTGGTAGGTAGCTATGGCAGCTGCTTCTTCGGAGTCACCTAGTGCAG,3740 fluorescence intensity (a.u.)
10,TTGTAATTAATTAACTGATTAATTAAACTGCATGAATTTTCGGAGTCACCTAGTGCAG,60100 fluorescence intensity (a.u.)
11,AGCTACCAAATTAATCAAGGGAACAAGTCATTAACTGTTACGGAGTCACCTAGTGCAG,5010 fluorescence intensity (a.u.)
12,AATATTTGATGATAAATCAAGTCACAATAGAATAAATAATCGGAGTCACCTAGTGCAG,4090 fluorescence intensity (a.u.)
13,TTAAAATTTAATTAATTTTATGCTTTAATGGTTATTTCTTCGGAGTCACCTAGTGCAG,36900 fluorescence intensity (a.u.)
14,TCTAATGTATTGATGATGGACCGATCGCACTCACTCCAGGCGGAGTCACCTAGTGCAG,23400 fluorescence intensity (a.u.)
15,TATTAATGGATACTGAAATATATTTGGAAGATGCTATATTCGGAGTCACCTAGTGCAG,3460 fluorescence intensity (a.u.)
16,AGGGATAGATTGGCTTAGGGGCGGGTGGGTCTAGAGATTTCGGAGTCACCTAGTGCAG,5870 fluorescence intensity (a.u.)
17,ACTAAATTGCACCCACCTCGCAAGCTCGTGTACTCGCAGTCGGAGTCACCTAGTGCAG,17600 fluorescence intensity (a.u.)
18,ACCTAATTACGAATCACAAAGAGAGATGCCTCACATATACCGGAGTCACCTAGTGCAG,16000 fluorescence intensity (a.u.)
19,CCCAAATTAACGCAGCCTTTGTCTATTTTGACCAAACCGTCGGAGTCACCTAGTGCAG,16400 fluorescence intensity (a.u.)
20,GAAATTTGCCAATTTGCCAATTGCATCAGGATCACTCTCGCGGAGTCACCTAGTGCAG,23100 fluorescence intensity (a.u.)
21,CCCTAAATAGGTTGATGGATTAGCTCCATTTTCCACCTAACGGAGTCACCTAGTGCAG,28200 fluorescence intensity (a.u.)
